Measurements: patent US20220267443A1 (AGENUS, published 2022)

T1: rhICOS-Fc (R&D, #169-CS-050) (human, UniProt Q9Y6W8 21-141)
T1 construct: Bought protein; also called recombinant human ICOS; not shown: Fc part of the bought fusion protein
T1 sequence: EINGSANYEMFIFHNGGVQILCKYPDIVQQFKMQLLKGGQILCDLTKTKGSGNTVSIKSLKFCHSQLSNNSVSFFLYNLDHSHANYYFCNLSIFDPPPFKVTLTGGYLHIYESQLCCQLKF

T2: rhBTLA-Fc (Sino Biological, #11896-H02H) (human, UniProt Q7Z6A9 31-157)
T2 construct: Bought protein; also called recombinant human BTLA; not shown: Fc part of the bought fusion protein
T2 sequence: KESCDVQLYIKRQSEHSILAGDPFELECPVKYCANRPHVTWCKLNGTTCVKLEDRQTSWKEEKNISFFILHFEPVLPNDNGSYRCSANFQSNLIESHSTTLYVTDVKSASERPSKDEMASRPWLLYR

T3: rat CTLA-4 in PHA-stimulated CD4+ rat T cells (rat, UniProt P09793 36-223 (mouse entry))
T3 construct: Cells were permeabilised before staining
T3 chain: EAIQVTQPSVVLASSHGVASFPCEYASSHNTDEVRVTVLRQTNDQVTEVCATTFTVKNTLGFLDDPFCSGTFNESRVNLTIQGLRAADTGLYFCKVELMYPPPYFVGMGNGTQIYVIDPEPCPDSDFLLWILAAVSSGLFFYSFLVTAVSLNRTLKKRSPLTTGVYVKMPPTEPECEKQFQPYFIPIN

B1: AGEN1884 (antibody, human IgG1)
heavy: EVQLVESGGGLVKPGGSLRLSCAASGFTFSSYSMNWVRQAPGKGLEWVSSISSSSSYIYYADSVKGRFTISRDNAKNSLYLQMNSLRAEDTAVYYCARVGLMGPFDIWGQGTMVTVSSASTKGPSVFPLAPSSKSTSGGTAALGCLVKDYFPEPVTVSWNSGALTSGVHTFPAVLQSSGLYSLSSVVTVPSSSLGTQTYICNVNHKPSNTKVDKRV[sequence of human IgG1 Fc omitted]
light: EIVLTQSPGTLSLSPGERATLSCRASQSVSRYLGWYQQKPGQAPRLLIYGASTRATGIPDRFSGSGSGTDFTLTITRLEPEDFAVYYCQQYGSSPWTFGQGTKVEIKRSVAAPSVFIFPPSDEQLKSGTASVVCLLNNFYPREAKVQWKVDNALQSGNSQESVTEQDSKDSTYSLSSTLTLSKADYEKHKVYACEVTHQGLSSPVTKSFNRGEC
notes: Human IgG1; also called anti-CTLA-4 antibody AGEN1884
B2: AGEN1884w (antibody, human IgG1, kappa)
heavy: B1 heavy
light: B1 light with S109T
notes: Human IgG1; AGEN1884w-FortiCHO and AGEN1884w-PowerCHO are AGEN1884w produced in two growth media; the label used is kept in each row; also called AGEN1884w-FortiCHO

How the values were obtained:
[1] = target: T4, cynomolgus CTLA-4 in activated cynomolgus T cells (cynomolgus, UniProt P16410 36-223 (human entry)); experiment: flow cytometry, intracellular staining of activated cynomolgus CD8+ T cells
T4 construct: also called cynomolgus (Macaca fascicularis) CTLA-4
Experimental: The binding characteristics of the antibody AGEN1884 to cynomolgus (Macaca fascicularis) CTLA-4 was analyzed by a flow cytometry analysis. Cynomolgus PBMCs (Biomedical Primate Research Centre, Netherlands) isolated via ficoll gradient were activated using plate-bound 8 μg/ml anti-CD3 (BD, 557052) and 0.1 μg/ml anti-CD28 antibodies (eBioscience, Cat. 16-0289-85) in the presence of 50 U/ml IL-2 (BioLegend, 589106) for 3 days in RPMI-1640 media supplemented with 10% fetal bovine serum, 10 mM HEPES and 1× Pen/Strep-Glutamine at 37° C. and 5% CO₂. Following activation, the cells were incubated with an anti-CD8a antibody (eBioscience, 9043-0087-120) diluted 1:100 in FACS buffer (PBS with 2% FBS) for 30 minutes at 4° C. The cells were then washed with FACS buffer twice and applied to the Cytofix/Cytoperm procedure of the BD Bioscience Kit (51-2090KZ) according to the manufacturer's protocol. Serial dilutions of 1:3 from 9 to 0.037 μg/ml of AGEN1884, a reference anti-CTLA-4 IgG₁ antibody, and an IgG₁ isotype control were applied to the cells. The samples were suspended in 200 μl of FACS buffer and analyzed using the FACS Diva flow cytometer (BD Biosciences).

[2] = target: T5, recombinant cynomolgus CTLA-4-Fc (Sino Biological, #90213-C02H) (cynomolgus, UniProt P16410 36-161 (human entry)); experiment: suspension array (Luminex) selectivity assay, antigen coupled to microspheres
T5 construct: Bought protein; also called recombinant cynomolgus (rc) CTLA-4; not shown: Fc part of the bought fusion protein
Experimental: (§1) The selectivity of AGEN1884 for CTLA-4 was assessed against other members of the immunoglobulin superfamily using suspension array technology as a multiplex assay. A number of immunoglobulin superfamily members were chemically coupled to Luminex® microspheres using standard NHS-ester chemistry. Purified materials of AGEN1884, a reference anti-CTLA-4 IgG₁ antibody, and an IgG₁ isotype control were diluted in assay buffer (Roche 11112589001) to 10 ng/ml, 100 ng/ml, and 1000 ng/ml. Briefly, 25 μl of each dilution was incubated in the dark (20° C., 650 rpm) with 1500 Luminex® microspheres in 5 μl assay buffer for 1 hour in 96 half-well filter plates (Millipore, MABVN1250). Luminex® microspheres were coupled with recombinant human CTLA-4-Fc (R&D Systems, #7268-CT), recombinant cynomolgus CTLA-4-Fc (Sino Biological, #90213-C02H), rhCD28-Fc (R&D, #342-CD-200), rhICOS-Fc (R&D, #169-CS-050), rhBTLA-Fc (Sino Biological, #11896-H02H), rhPD-1-Fc (R&D Systems, #1086-PD), or recombinant cynomolgus PD-1-Fc (produced in-house) via amine coupling with the COOH bead surface. Standard curves were generated using duplicates of 25 μl of a human IgG₁ standard (Sigma, 15154) with 1:3 dilution series (0.08-540 ng/ml). Detection was carried out using 60 μl of goat anti-human IgG F(ab)₂ labeled with R-PE (2.5 μg/ml; JIR 109-116-098, AbDSerotec Rapid RPE Antibody Conjugation Kit, LNK022RPE) and another hour of incubation time (20° C., 650 rpm). Plates were analyzed using a Luminex® 200 system (Millipore). A total of 100 beads were counted per well in a 48 μl sample volume. PE MFI values were used to determine specific or nonspecific binding to the recombinant proteins mentioned above.

[3] = target: T6, rhCD28-Fc (R&D, #342-CD-200) (human, UniProt P10747 19-152); experiment: as above
T6 construct: Bought protein; also called recombinant human CD28; not shown: Fc part of the bought fusion protein
T6 sequence (P10747 19-152 limits assumed): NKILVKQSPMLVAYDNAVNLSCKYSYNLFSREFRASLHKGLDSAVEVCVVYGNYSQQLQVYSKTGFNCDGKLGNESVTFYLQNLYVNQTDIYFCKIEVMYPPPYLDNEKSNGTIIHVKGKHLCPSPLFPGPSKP
Experimental: as §1

[4] = target: T1, rhICOS-Fc (R&D, #169-CS-050); experiment: as above
Experimental: as §1

[5] = target: T2, rhBTLA-Fc (Sino Biological, #11896-H02H); experiment: as above
Experimental: as §1

[6] = target: T7, rhPD-1-Fc (R&D Systems, #1086-PD) (human, UniProt Q15116 in part); experiment: as above
T7 construct: Bought protein; also called recombinant human PD-1; not shown: Fc part of the bought fusion protein
T7 sequence (Q15116 25-167 limits assumed): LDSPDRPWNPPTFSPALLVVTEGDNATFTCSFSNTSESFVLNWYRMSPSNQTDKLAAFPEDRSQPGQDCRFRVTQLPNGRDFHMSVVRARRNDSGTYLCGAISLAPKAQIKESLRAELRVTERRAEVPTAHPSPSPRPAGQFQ
Experimental: as §1

[7] = target: T4, cynomolgus CTLA-4 in activated …; experiment: flow cytometry, Pacific Blue labeled antibody on permeabilised PHA-stimulated CD4+ T cells
Experimental: (§2) Further, peripheral blood mononuclear cells (PBMCs) from human, cynomolgus monkey (Indochinese), rat, or mouse were aliquoted into wells of a 96-well round bottom tissue culture plate (1×10⁵ cells/well) and stimulated for 4 days in RPMI-1640 supplemented with 10% fetal bovine serum, 15 mM HEPES, 100 IU/ml penicillin, […] streptomycin, 2 mM L-glutamine, 100 IU/ml IL-2 (Peprotech), and 1 μg/ml phytohemagglutinin (PHA) (Roche) at 37° C. and 5% CO₂. After stimulation, cells were washed and 5% heat-inactivated human AB serum (Sigma-Aldrich) was added to block Fc receptors and prevent non-specific binding of antibodies. Cells were washed again and re-suspended in 100 μl of a diluted APC-conjugated anti-CD4 antibody (clone OKT4, GK15, or W3/25; Biolegend). After incubating for 45 minutes in the dark, cells were washed three times and permeabilized using a FoxP3/Transcription Factor Staining Buffer Set (eBioscience) following the manufacturer's instructions. After permeabilization, cells were incubated with serial dilutions of fluorescently labeled (Pacific Blue™) AGEN1884w or an isotype control antibody ranging from 0.00003 μg/ml to 10 μg/ml for 45 minutes at 4° C. in the dark. The cells were washed twice before flow cytometric analysis using a Becton Dickinson LSRFortessa™. Data were analyzed using FlowJo software (Version 10).

[8] = target: T8, mouse CTLA-4 in PHA-stimulated CD4+ mouse T cells (mouse, UniProt P09793 36-223); experiment: as above
T8 construct: Cells were permeabilised before staining
Experimental: as §2

[9] = target: T3, rat CTLA-4 in PHA-stimulated CD4+ rat T …; experiment: as above
Experimental: as §2

| Binder | binding result [1] | binding result [2] | binding result [3] | binding result [4] | binding result [5] | binding result [6] | binding result [7] | binding result [8] | binding result [9] |
| --- | --- | --- | --- | --- | --- | --- | --- | --- | --- |
| B1 | binds | binds | no binding (tested: 10 ng/ml, 100 ng/ml, and 1000 ng/ml) | no binding (tested: 10 ng/ml, 100 ng/ml, and 1000 ng/ml) | no binding (tested: 10 ng/ml, 100 ng/ml, and 1000 ng/ml) | no binding (tested: 10 ng/ml, 100 ng/ml, and 1000 ng/ml) |  |  |  |
| B2 |  |  |  |  |  |  | binds | no binding (tested: 0.00003 µg/ml to 10 µg/ml) | no binding (tested: 0.00003 µg/ml to 10 µg/ml) |

Residue numbers refer to the chain shown, from its start.
